# According to the supplement of paper PMC3334620:
# In all, about 33,000 sequences were measured (“E-score (-0.5 to 0.5)”: median about -0.041, highest 2% from about 0.37 on). The list shows a part of the results.
# Target: T1, Ecm22 (UniProt Q05958)
# T1 sequence: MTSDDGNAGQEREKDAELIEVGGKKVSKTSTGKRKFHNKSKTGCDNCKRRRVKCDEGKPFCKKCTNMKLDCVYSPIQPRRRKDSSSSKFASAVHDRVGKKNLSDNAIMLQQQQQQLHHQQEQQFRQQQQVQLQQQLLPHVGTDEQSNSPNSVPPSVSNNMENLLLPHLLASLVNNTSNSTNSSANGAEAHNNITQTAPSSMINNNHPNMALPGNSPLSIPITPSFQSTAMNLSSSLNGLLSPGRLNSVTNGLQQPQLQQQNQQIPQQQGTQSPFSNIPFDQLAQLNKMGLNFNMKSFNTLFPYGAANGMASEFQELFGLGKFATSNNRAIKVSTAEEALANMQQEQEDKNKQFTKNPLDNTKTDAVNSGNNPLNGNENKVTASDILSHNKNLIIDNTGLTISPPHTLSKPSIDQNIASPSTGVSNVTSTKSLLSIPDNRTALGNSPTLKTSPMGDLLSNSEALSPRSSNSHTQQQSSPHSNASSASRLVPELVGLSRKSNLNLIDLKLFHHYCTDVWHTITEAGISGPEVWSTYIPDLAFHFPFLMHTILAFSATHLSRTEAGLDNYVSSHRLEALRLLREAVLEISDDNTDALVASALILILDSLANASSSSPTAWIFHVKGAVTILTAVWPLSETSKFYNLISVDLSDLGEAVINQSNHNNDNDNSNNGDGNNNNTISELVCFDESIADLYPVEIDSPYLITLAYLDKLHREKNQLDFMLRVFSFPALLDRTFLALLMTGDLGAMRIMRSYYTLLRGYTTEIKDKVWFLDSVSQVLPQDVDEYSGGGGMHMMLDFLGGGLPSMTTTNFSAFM
# Assay: PBM E-score (8-mer binding enrichment) (E-score (-0.5 to 0.5)); higher = stronger / more preferred TF binding; most listed sequences are background and not binding sites
# Details: protein concentration: 200 nM; construct: GST-full length
# Outline: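 GST-tagged yeast TFs (full-length or DNA-binding domain) were made by PURExpress in vitro transcription/translation and applied at about 100-200 nM to universal all-10-mer Agilent arrays. The arrays were made double-stranded by primer extension, on fresh or once-stripped slides. Bound protein was detected with fluorescent anti-GST, and scans were normalised with masliner. Each ungapped eight-base word, pooled with its reverse complement, received an E-score (modified Wilcoxon-Mann-Whitney statistic) from the Universal PBM Analysis Suite.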
row,Sequence,PBM E-score
1,GCCCAGAC,-0.248
2,AATAAGTA,0.0089
3,AGTCCAAC,-0.27
4,GGGGTTCA,-0.242
5,ATCTTTCA,-0.0605
6,AGTCTTGC,-0.122
7,AGATTTGA,-0.0348
8,GCGCCCTA,-0.00313
9,TAGAAAGA,-0.22
10,AATAGGAG,-0.144
11,GACGCAGC,-0.096
12,ACTAGGAG,-0.352
13,AGAAGCGC,-0.0279
14,AATTGAAG,-0.185
15,ACTCTTAC,0.0982
16,AAGTGTAG,-0.214
17,CGGTCCGA,0.294
18,ATTACGAC,0.367
19,GAGTCCCA,-0.123
20,AAACTTAA,-0.0485
21,CCCGTTCC,0.447
22,AGTTAGGG,-0.182
23,AATCTTCC,-0.0465
24,GAGATTCC,-0.00657
25,AGAAGTCT,-0.299

row,Sequence,PBM E-score
1,ATGTTAGG,-0.0839
2,AGAACACC,-0.119
3,CTACATTA,0.0115
4,CACAAACA,-0.108
5,ATCTAATG,-0.0391
6,CCATTAGA,-0.282
7,ACACAAGA,-0.237
8,AGACCGGG,-0.0833
9,CTCGAATC,-0.0398
10,CCCGGGCA,-0.155
11,CATGTCCG,-0.0838
12,AGCGCTAG,-0.143
13,CTACCTCA,-0.073
14,ACGCAAGG,-0.01
15,CACACGCG,0.0349
16,CCTTCAGA,-0.134
17,CCGGACGA,-0.111
18,ATAACAGA,-0.0651
19,AACAAAAC,-0.0234
20,ACCGACTG,0.142
21,CACCGGTC,-0.174
22,AGGGTTGA,-0.0283
23,AAATCCTT,0.0766
24,CAGTAGGA,-0.189
25,TACCGGCA,0.0162

row,Sequence,PBM E-score
1,GACACCTA,-0.144
2,GTTCATAA,0.0587
3,GTCTGTTA,-0.0155
4,AATCTACC,-0.00111
5,TGCGTACA,0.283
6,CGCTGAGA,-0.134
7,TACAACAA,0.102
8,ACTGTCCG,0.165
9,GCCAGAAA,-0.0807
10,AACCTTAC,0.14
11,CTGTGGTA,0.0208
12,ATTGATAG,-0.106
13,AGGGCGGC,-0.163
14,ACACTTCT,-0.0502
15,CAGCAGTC,-0.0365
16,CCATATAC,0.209
17,ATATAACA,0.0563
18,CTATGAAA,-0.11
19,ATGCGTTG,0.0063
20,ACTCTCTC,-0.0772
21,GACTTAAA,0.00457
22,ACTGTTTG,-0.145
23,AGTATACA,0.0981
24,ACTTTGGA,-0.0557
25,CTGGGAAC,0.132

row,Sequence,PBM E-score
1,GGTTTAAC,0.0725
2,GCATCCAC,-0.0987
3,GAGTGCGA,0.116
4,CAACATAC,0.196
5,ACTTCACA,-0.0174
6,CCCAACGC,-0.0914
7,CTTAAGCC,-0.196
8,ACAAGAAT,-0.204
9,CAGAGCAG,-0.125
10,ACGGCCCG,0.208
11,AATTGTAC,0.264
12,CTCCTCGA,0.00861
13,ACGGACAC,0.135
14,CAACACGG,0.00131
15,CTTCGCGC,0.184
16,CCAACTAC,-0.0395
17,CCGCTCAG,-0.0555
18,TATTAATA,0.11
19,CCATCGAG,0.142
20,AAGACTAT,-0.0439
21,AAGATTCA,-0.154
22,GACACAGA,-0.127
23,AAGGGACT,-0.3
24,CAGCCTAA,-0.165
25,CGATCCTC,0.0953

row,Sequence,PBM E-score
1,TCCATAAA,-0.108
2,CCCTATAA,-0.227
3,ACGTACTC,0.288
4,GTCTCCAC,-0.154
5,AAGGCAGA,-0.237
6,CTCTGGTC,-0.174
7,CAGCGATA,0.0374
8,GATCCAGA,0.0677
9,AGATAATC,-0.037
10,CCACGCCG,-0.0766
11,AATGGTTA,-0.104
12,ATCGAGAC,0.188
13,ATCGTGCA,0.139
14,AGCCATAT,-0.097
15,CTGGACTA,-0.319
16,CAGGTTCA,-0.227
17,CCAAGGAG,-0.278
18,GCGATCTA,0.173
19,CGTGTGAA,0.135
20,GTCGCTAA,0.289
21,ATATTATG,0.137
22,ATATGCAA,-0.0145
23,CTGGTCCC,-0.318
24,CCAACGAG,0.093
25,AACTATTA,0.0444

row,Sequence,PBM E-score
1,ACTTAATG,0.183
2,AGCGTTCC,0.2
3,GATTAATC,0.132
4,CTATTGAG,-0.0347
5,CATCCTCG,0.13
6,CCCGGGTC,-0.0589
7,AGCGCGGC,-0.0689
8,CGGGTAAA,0.214
9,CTACTCTA,-0.204
10,GATCTGAC,-0.0452
11,CGATTAAA,0.229
12,ATTTGGTA,-0.113
13,AAGTGGTA,-0.0855
14,ATTTTTGA,-0.259
15,AGGGCTCG,0.245
16,AAGAAATG,-0.0278
17,CCTCACCA,-0.139
18,ACCGAGGG,0.145
19,ACCGAATC,0.236
20,CTGCCACC,-0.176
21,ACAAGCGC,0.0807
22,TGTAGACA,-0.0979
23,CGGCTCAG,0.0851
24,CATGATAA,0.0762
25,CTGTTCTA,-0.154

row,Sequence,PBM E-score
1,ATCGTGTA,0.25
2,CTCGGAAC,0.326
3,ACGCATAG,0.285
4,GCATGTCC,-0.101
5,ACGCATCT,-0.0202
6,CAGTCGCA,0.0819
7,TATTACGA,0.389
8,CCTCGTTC,0.474
9,ATATTGAT,0.0156
10,ATCAAACA,-0.0906
11,AATCCCAA,-0.105
12,CACACCTA,0.0474
13,CGGGGCCA,0.0446
14,CAATTATG,0.0142
15,ACTGGCAT,-0.182
16,ACGCATAT,0.143
17,AGGTACTG,-0.183
18,GGGACCAC,-0.203
19,ATTAGACA,-0.239
20,AAATTAAC,-0.0167
21,AGCCGATG,0.0052
22,ACGGAGAT,0.163
23,TTTCGAAA,0.0262
24,AACAAATT,0.0686
25,CTTTCTTC,-0.0421

row,Sequence,PBM E-score
1,CGATGTAG,-0.0487
2,CTAACGGA,0.0654
3,GGAACATA,0.0849
4,AGAAATAC,0.0624
5,AGGATACG,0.321
6,CTTCAAAC,-0.0586
7,AGCTAGTA,0.101
8,GCGATGAA,0.015
9,AGTATTTA,-0.0192
10,AGCTAGCT,-0.201
11,GAGGAGGC,-0.0805
12,AACACGGT,0.0392
13,CTGAAACA,-0.116
14,ATGGTAGA,-0.0133
15,CTTAAACC,0.0103
16,GACAATCA,-0.0176
17,CCTGTTTA,-0.143
18,CACGTGGC,-0.272
19,CGAGTAAG,0.17
20,GGCCCACA,-0.157
21,GGACCACC,-0.0259
22,ACAAGTGG,-0.222
23,CGATGAAC,0.148
24,CCTCGCGA,0.274
25,AGGCGGTC,-0.012

row,Sequence,PBM E-score
1,ATCCGTAC,0.363
2,ACATGCAA,0.0121
3,GATCTGCC,0.013
4,AAAGAATC,-0.0918
5,CCGTTCCC,0.464
6,GAGCAGCA,-0.0654
7,ACAGCAAT,-0.11
8,ATACGATC,0.457
9,AGAGCTAG,-0.0359
10,CTAGAGGA,-0.357
11,GTAGTCAC,-0.177
12,CGCTACTC,0.0986
13,ACTTCGAT,0.123
14,AAGGGGTG,-0.259
15,GCCTGCAA,-0.0382
16,AGTGTAGC,-0.0827
17,AATGTGCA,-0.0272
18,AAGTTTCC,-0.129
19,TTGCGAAA,0.205
